From ChEMBL document CHEMBL4888484, “Replenishing the malaria drug discovery pipeline: Screening and hit evaluation of the MMV Hit Generation Library 1 (HGL1) against asexual blood stage Plasmodium falciparum ,using a nano luciferase reporter read-out” (2022)
Hit rate of the full screen: of about 4,800 compounds, about 410 (8.5%) showed an effect of 50% or more. The list shows a part of the results.

System: Plasmodium falciparum
Experiment: Confirmatory screen in NF54 pLDH assay, in single point, at 2uM, 72h
Format: functional, Erythrocyte
Settings: timepoint 72 hour

| SMILES | % Inhibition [%] |
| --- | --- |
| C[C@@H](C(=O)Nc1nc(-c2ccccn2)cs1)n1nc2c(cc1=O)CCC2 | 17 |
| CC(C)[C@H](Nc1ccc2nccnc2n1)c1nnc2n1CCC2 | 3 |
| Cc1c(NC(=O)[C@H]2CCc3nnc(C4CCOCC4)n3CC2)cccc1C(F)(F)F | -13 |
| CC1=CN(O)[C@H](c2ccc(O)cc2)N=N1 | -19 |
| Cc1noc([C@@H](C)NC(=O)CC(C)C)c1C(=O)O | 7 |
| Cc1cn2c(S(=O)(=O)NCc3ccco3)c(C(C)C)nc2s1 | -6 |
| Cc1nnc2sc(Nc3ccccc3)nn12 | -1 |
| Cc1cccc(C(=O)Oc2ccc(-n3ccnc3)cc2)c1 | 5 |
| O=c1cc2n(c(=O)[nH]1)CC(c1ccccc1)=NN2 | 12 |
| C[C@H]1CCC[C@@H](NCCc2ccccc2)CCC/C=C/c2cc(O)cc(O)c2C(=O)O1 | 72 |
| CCc1nc(NC(=O)C(=O)Nc2cc(C)on2)sc1C | 6 |
| Cc1ccccc1C(=O)Nc1nnc(Cc2nc3ccccc3s2)s1 | -8 |
| O=C1C2C3C=CC(C3=C3CCCCC3)C2C(=O)N1c1cccc(Cl)c1 (stereo not drawn) | 15 |
| NC(=O)[C@@H]1CN(C(=O)c2ccc(Br)cc2Oc2ccc(F)cc2)CCO1 | 1 |
| CCCNC(=O)CS(=O)(=O)Cc1cccc(Br)c1C | -14 |
| CCc1nccn1CC(=O)Nc1cc(C)nn1C | -14 |
| Cc1cccc(N2C(=O)c3cc(Br)ccc3N[C@@H]2c2ccc(N(C)C)cc2)c1 | -1 |
| COc1ccc(CN2CCc3nn(CC4CC4)c(=O)n3CC2)cc1 | -6 |
| CCN1c2cc(C)ccc2-n2cccc2C12CCNCC2 | -7 |
| CCOc1ccc(NC(=O)c2cn3nc(-c4ccc(OCC)cc4)cc3nc2C2CCN(C(=O)OC(C)(C)C)CC2)cc1 | 16 |
| CC(C)[C@H](NC(=O)c1ccc(Cl)cc1Cl)C(=O)O | -5 |
| CCN1c2cc(C(=O)NCc3ccccc3C)ccc2C(=O)N2CCCC[C@H]21 | 1 |
| CCC(=O)N1CCC[C@H](OCc2ccccc2Cl)C1 | -3 |
| CC(C)(C)CC(=O)Nc1ccc2c(c1)C(N1CCCCC1)=Nc1ccccc1O2 | -4 |
| Cc1cc(CN2C(=O)NC3(CCCCC3)C2=O)no1 | 3 |
| CCc1c2c(=O)n(-c3ccc(F)cc3)[nH]c2cc(=O)n1Cc1ccccc1 | 8 |

| SMILES | % Inhibition [%] |
| --- | --- |
| CCOc1cc(CNc2cccc3ccccc23)cc(Br)c1OCC(=O)NC(C)(C)C | 91 |
| Cc1ccc(NC(=O)c2cn(CC3(O)CCN(Cc4ccccc4)CC3)nn2)c(C)c1 | 12 |
| CNC(=O)c1cnc(C=Cc2cnc(-c3cccnc3)s2)s1 | 8 |
| CCCCC(C(=O)Nc1cc(C)on1)N1CCN(C)CC1C (stereo not drawn) | -4 |
| c1ccc(-c2ccccc2NCn2nnc3ccccc32)cc1 | -9 |
| NS(=O)(=O)Cc1ccc(CNc2ccc3ccc(F)cc3n2)cc1 | 6 |
| Cc1nn(C)c(C)c1S(=O)(=O)N1CC[C@]2(CCN(c3cccnc3)C2)C1 | 12 |
| Cc1noc(C)c1CNc1cc(S(=O)(=O)N2CCCCC2)ccc1Oc1ccccc1 | 14 |
| CC(C)(C)OC(=O)N1CC(NC(=O)C2CC2c2ccccc2C(F)(F)F)C1 (stereo not drawn) | -16 |
| CCOc1c(CNC(C)(C)CC(C)(C)C)cccc1OC | 5 |
| Fc1ccccc1N1CCN(C2CCN(Cc3c[nH]c4ccccc34)CC2)CC1 | 33 |
| O=C(NCC(F)(F)F)Nc1ccc(CO)cc1 | 3 |
| CCC(=O)N1CCC(Nc2cccc(-c3nc(C4CC4)n[nH]3)c2)CC1 | -24 |
| COc1ccc(CCNC(=O)CCCC(=O)NCc2ccccc2)cc1OC | -14 |
| Cc1nc(CCNC(=O)Cc2nn(C)c3ccccc23)c(C)o1 | 12 |
| CCc1ccccc1Nc1nc(C)c(C(=O)NCc2cccnc2)s1 | -22 |
| Cc1cc(OCc2ccc(C(=O)Nc3ncn(Cc4c(F)cccc4Cl)n3)o2)ccc1Cl | 0 |
| CN(C)C(=O)NCC1(NC(=O)N(C)C)CCC1 | 5 |
| O=C(NCc1ccco1)c1nc(-c2ccncc2)cs1 | 10 |
| COc1ccc(C2=NN(C(C#N)c3cccc(OC)c3O)C(c3ccccc3)C2)cc1 (stereo not drawn) | 3 |
| C[C@@H](C(=O)N1CCN(C/C=C/c2ccccc2)CC1)N1Cc2ccccc2C1=O | 0 |
| Cn1nccc1/C=C1\CC2C3CCc4cc(O)ccc4C3CCC2(C)C1O (stereo not drawn) | 47 |
| CN(CC(C)(CO)CO)C(=O)c1coc2ccccc12 | 4 |
| CC1CN(S(=O)(=O)CC2CCOC2)c2ccc(F)cc2O1 (stereo not drawn) | 3 |
| O=C(Nc1ccccc1OC[C@H]1CCCCO1)N1CCOCC1 | 9 |
| O=C(NCCCN1CCCC1=O)c1cn2ccnc(-c3ccccc3)c2n1 | 0 |

| SMILES | % Inhibition [%] |
| --- | --- |
| C[C@@H](NC(=O)c1ccccc1F)c1ccccc1 | 14 |
| O=C1CCC[C@H](C(=O)Nc2cnn(CC(F)(F)F)c2)N1 | 6 |
| Cc1cc(Cl)ccc1S(=O)(=O)N1CCc2nnc([C@H]3CCN(C(C)C)C3)n2CC1 | 10 |
| O=C(NCc1cccnc1)c1cnn2c3c(cnc12)CCCC3 | -3 |
| COc1ccc(N(Cc2ccc(F)cc2)S(=O)(=O)c2ccc3nncn3c2)cc1 | -9 |
| Cc1cc2nc(C)c(=O)n(Cc3ccc(C(=O)NCCCN4CCCC[C@@H]4C)cc3)c2cc1C | 14 |
| CCOCCC1(CN=C(N)N2CCCCC2)CCCC1 | 5 |
| O=C(Cc1ccc(N(Cc2cccc(F)c2)C(=O)C2CCCC2)cc1)NCCN1CCCC1 | 31 |
| CCOC1CC(NC2CC(c3ccc(F)cc3)C2)C12CCC2 (stereo not drawn) | 45 |
| Cc1cc(N)nc(Nc2ccc(Nc3ccccc3)cc2)n1 | 97 |
| CCn1c(=O)c(N2CCC[C@H](C(=O)NCCc3c[nH]c4ccccc34)C2)nc2ccccc21 | 9 |
| CC(=O)N1CC[C@H](CC(=O)N(C)Cc2ccccc2)C1 | 0 |
| CN(C)CCNCc1ccc(Cl)c(Cl)c1 | -14 |
| O=c1ccn2c(n1)O[C@H]1[C@H](OC3CCCCO3)[C@@H](COC3CCCCO3)O[C@H]12 (stereo partly drawn) | -17 |
| Cc1ccc(CN2CCN(CC(=O)NC3CCCCCCC3)C2=O)cc1 | -5 |
| COC(=O)N1CC[C@H](NC(=O)OC(C)(C)C)C1 | 10 |
| Cc1cc(C(=O)N(CCN(C)C)c2ccccc2)c(C)s1 | 6 |
| Cn1ncnc1CCNC(=O)NC(C1CCCC1)C1CCCC1 | 11 |
| CC(C)C(=O)NC1CCN(c2nc(Cc3ccc(F)cc3)no2)CC1 | 16 |
| Cc1nc(-c2ccc(C(F)(F)F)cc2)nc(N2CCN(C(=O)c3cc(C(F)(F)F)cc(C(F)(F)F)c3)CC2)c1C(C)C | 7 |
| c1ccc(CC2CCN(c3[nH]cnc4ncnc3-4)CC2)cc1 | 11 |
| Cc1c(CCO)c(=O)n(-c2ccccc2)n1S(=O)(=O)c1c(Cl)cc(Cl)cc1Cl | 11 |
| CCOc1ccc(NC(=O)N(Cc2cn(CC)c3ccccc23)[C@@H](C)CC)cc1 | -14 |
| Cc1csc(C(C)(C)NC(=O)NCCC2=CCCC2)n1 | -7 |
| O=C(Cn1cnc2cc3c(cc21)OCCCO3)N1CCc2ccccc21 | 12 |
| CC[C@@H](CO)NCc1cc(Br)ccc1OC | -6 |

| SMILES | % Inhibition [%] |
| --- | --- |
| CC[n+]1c(C)sc2cc(-c3ccccc3)sc21 | 0 |
| COC(=O)c1nc(NC(=O)C2(C)CCCC2)sc1C(C)C | -9 |
| CCOC(=O)c1c(CN(C)C)n(-c2ccc(OC)cc2)c2ccc(Oc3nccc(Nc4ccc(C)cc4)c3C#N)cc12 | 3 |
| O=S1(=O)CC[C@H](NS(=O)(=O)c2ccc3c(c2)OCCO3)C1 | -16 |
| COc1ccc(-c2nn3c(Cc4ccccn4)nnc3s2)cc1OC | 14 |
| CN(C)S(=O)(=O)N(CCN1CCCC1)[C@H]1CCN(C(=O)CCC2CCCC2)C1 | 12 |
| COC1(C)CC(NC(=O)C(C(C)C)N2CCCS2(=O)=O)C1(C)C (stereo not drawn) | -2 |
| Cc1cc(NC(=O)CS(=O)(=O)Cc2c(C)noc2C)no1 | -19 |
| CC(C)(C)OC(=O)NC1CCC(N2C(=O)CCC2=O)CC1 (stereo not drawn) | 2 |
| Cc1cc(=O)n2ncc(C(=O)NCc3cc(F)cc(F)c3)c2[nH]1 | -18 |
| O=C1CCCc2nc3[nH]n(-c4ccccc4)c(=O)c3cc21 | 13 |
| Cc1cc(S(=O)(=O)N(C)Cc2ccco2)cc2c1NC(=O)C2(C)C | 13 |
| COc1cccc(CNCc2ccc3c(c2)OCO3)c1OCc1ccc(Cl)cc1Cl | 10 |
| Cc1cc(C)c2ccc3ccccc3c2n1 | 13 |
| Cn1c(N)c(S(=O)(=O)N2CCN(c3ccccc3Cl)CC2)c(=O)n(C)c1=O | 10 |
| CC(C)c1cccc(CN2C(=O)N[C@]3(CC(C)(C)OC3(C)C)C2=O)n1 | -15 |
| O=C(Cn1nnc2ccccc21)N(Cc1cccnc1)C1(C(=O)Nc2ccc3c(c2)OCO3)CCCCC1 | -3 |
| COc1ccccc1OCc1nn2c([C@H]3CCCN(S(C)(=O)=O)C3)nnc2s1 | 5 |
| Cc1n(CC(=O)c2ccccc2)c2ccccc2[n+]1CC(=O)c1ccccc1 | 66 |
| CC(C)Cn1c(=O)c2sccc2n(CC(=O)N2CCCC2)c1=O | 12 |
| CCN(C(C)=O)c1ccc(Cl)cc1F | -19 |
| CCC(=O)N1CCN(S(=O)(=O)c2ccc(C)cc2)[C@H]1C | 10 |
| Cc1cc(C)nc(N[C@H](c2ccc(F)cc2)c2cc(C)sc2NC(=O)c2ccccc2)n1 | 6 |
| O=C(C[C@@H]1CCNC[C@@H]1Cc1cc(COc2ccccc2)on1)NCc1ccc(F)cc1 | 15 |
| O=S(=O)(c1ccc(F)cc1)n1ccc(-c2cccc(OCc3ccc(Cl)cc3Cl)c2)n1 | 7 |
